The labels stand for the following.
B1: CPEB3 Ribozyme (parent)
chain: UAACAGGGGGCCACAGCAGAAGCGUUCACGUCGCAGCCCCUGUCAGAUUCUGGUGAAUCUGCGAAUUCUGCUGUAUAUCUC

Experimental findings from the RNAGym collection of RNA variant scans (doi:10.1093/nar/gkz1192) are described below.

Read counts are not given, so values of variants with three or more changes are uncertain.

Variants of B1 are the subject of this series. The series is described as follows: self-cleavage, relative activity (ratio to wild type); higher = more cleavage; in vitro, sequencing. The essentials:
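After error-prone PCR and barcoding, CPEB3 ribozyme mutant libraries were transcribed with T7 RNA polymerase at 37°C for 5 hours, then given 15 min with DNase I before an EDTA stop, and they cleaved during both steps. Reverse transcription with template switching preceded Illumina sequencing. Relative activity divides a variant's cleaved/total read fraction by the unmutated ribozyme's. At least 5 reads were required per variant, and three batches were averaged.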
For UAACAGGGGGUCACAGCAGAAGCGUUCACGUCGCCGCCCCUGUCAGAUUCUGGUGAAUCUGCGAAUUCUGCUGUAUAUCCC [C11U A35C U80C], the self-cleavage worked out at 0.44. The same measure for UAACAGGGGGUCACAGCAGAUGCGUUCACGACGCAGCCCCCGUCAGAUUCUGGAGAAUCUGCGAAUUCUGCUGUAUAUCUC [C11U A21U U31A U41C U54A]: 0.05; for UAACAGGGGGUCACAGCAGAAGCGUUCUCGUCGCAGCCCCUGUCGGAUUCUGGUGAAUCAGCGUAUUCUGCUGUAUAUCUC [C11U A28U A45G U60A A64U]: 0.15; for UAACAGGGGGUCACAGCAGAAGCGCUCACGUCGCAGCCCCUGUCAGAUUCUGGUGAAUCUGCGUAUUCUGCUGUAUAUCAC [C11U U25C A64U U80A]: 0.05. Then UAACAGGGGGUCACAGCAGAAGCGUACACGUCGCAGCCCCUGCCAGAUUCUGGUGGAUCUGCGAAUUGUGCUGUAGAUCUC [C11U U26A U43C A56G C68G U76G], with 0.05; and UAACAGGGGGUCACAGCAGAAGCGUUCACGUCGCAGCCCCUGUCAGAAUCUGGUGAAUCUGCGGAUUCUGCUGUAUAUCUC [C11U U48A A64G], with 0.3. UAACAGGGGGUCACAGCAGAAGCGUUCACGUCGCAGCCCCUGUCAGUUUCCGGUGAAUCUGCGUAUUCUGCUGUAUAUCUC [C11U A47U U51C A64U]: the self-cleavage is 0.06. The same measure for UAACAGGGGGUCACAGCAGAAGCGUUCGCGUCGCAGCCCCUGUCAGAUUCAGGUGGAUCUGCGAAUUCUGCUGUAUAUCUC [C11U A28G U51A A56G]: 0.13; for UAACAGGGGGCAUCAGCAGAAGCGUCCACGACGCAGCCCCUGCCAGAUUCUGGUGAAUCUGCGAAUUCUGCUGUGUAACUC [C12A A13U U26C U31A U43C A75G U78A]: 0.08. Then UAACAGGGGGUCACAGCAGAAGCGUUCUCGUCGCAGCCCCUGUCAGGUUCUGGUGAAUCUGCGAAUUCUGCAGUAUAUCCC [C11U A28U A47G U72A U80C], with 0.42. Then UAACAGGGGGUCACAGCAGAAGCGACCACGUCGCAGCCCGCGUCAGAUUCUGGUGAAUCUGCGAAUUCUGCUGUAUACCUC [C11U U25A U26C C40G U41C U78C], with 0.04; and UAACAGGGGGCAACGGCAGAAGCGUUCACGUCGCAGCACCUGCCAGAUUCUGGUGAACCUGCGAAUUCCGCUGUAUAUCUC [C12A A15G C38A U43C U58C U69C], with 0.04.

As to UAACAGGGGGUCACAGCAGGAGCGUUCACGUCGCAGCCCCCGUCAGAUUCUGGUGAAUCUGCGAAUUCCGCUGUAUAUCUC [C11U A20G U41C U69C], the self-cleavage amounted to 0.18. Then UAACAGGGGGUCACAGCAGAAGCGUCCACGUCGCAGCCCCUGUCAGAUUCUGGUGAAUCUGCGAUUUCUACUGUUUAUCUC [C11U U26C A65U G70A A75U], with 0.04; and UAACAGGGGGUCACAGCAGAAGCGUUCCCGUCGCAGCCCCUGUCAGUUUCUGGUGAACCUGCAUAUUCUGCUGUAUAUCUC [C11U A28C A47U U58C G63A A64U], with 0.07; and UAACAGGGGGUCACAGCAGAAGCGUUCACGUCGCAGCCCGUGUCAGAUUCUGGUGAAUCUGCGAGUUCUGCCGAAUAUCUC [C11U C40G A65G U72C U74A], with 0.02.

With UAACAGGGGGUCACAGCAGAAGCGUUCACGUCGCGGCCCCUGCCAGAUUCUGGUGAAUCUGCAAAUUCUGCUGUAUAUCUC [C11U A35G U43C G63A], the self-cleavage came to 0.98. For UAACAGGGGGUCACAGCAGAAGCGUUCAUGUCGCAGCCCCUGUCAGAUCCUGGUUAAUCUUCGAAUUCUGCUGUAUAUCUC [C11U C29U U49C G55U G61U], the self-cleavage is 0.05. The same measure for UAACAGGGGGUCACAGCAGAAACGUUCCCGACGCAGCCCCUGUCGGAUUCUGGUGAAUCUGCGAAUUCUGCUGUAUAUCUC [C11U G22A A28C U31A A45G]: 0.35. As for UAACAGGGGGUGACAGCAGAAGCGUUCACGUCGCAGCCCCUGUCAGAUUCUGGUGAAUCUGCAAGUUCUGCCGUAUAUCUC [C11U C12G G63A A65G U72C], the self-cleavage came out at 0.14. In the case of UAACAGGGGGUCACAGCAGAAGCGUUCGCGUCGCAGCCCCUGUCAGAUUCUGAUGGAUCUGCGAAUUCUGCUGUAUACCUC [C11U A28G G53A A56G U78C], the self-cleavage is 0.07. The same measure for UAACAGGGGGUCACAGCAGAGGCGUUCACGUCGCGGCCCCUGUCAGAUUCUGGUGAAGCUGCGAAUUCUGCUGUAUAUCUC [C11U A21G A35G U58G]: 0.47. The same measure for UAACAGGGGGCAGCAGCAGAAGCGUACACGUCGCAGCCCCUGUCAGACUCUGGUGAAUCUGCGAGUUCUGCUGUAUAUCUC [C12A A13G U26A U48C A65G]: 0.11; for UAACAGGGGGUCACAGCAGAAGCGUUCAUGUCGCAGCCCCUGUCAGAUUCUGGUGUGUCUGCGGAUUCUGCUGUAUAUCUC [C11U C29U A56U A57G A64G]: 0.09.

As to UAACAGGGGGCAGCUGCAGAAGCGUUCACGUCGCAGCCCCUGUCAGAUUCUGGUGAAUCUGCGAAUUCUGCUGUAUAUCUC [C12A A13G A15U], the self-cleavage turned out to be 0.99. As to UAACAGGGGGUCACAACAGAAGCGUUCACGUCGCAGCCCCUGUAGGAUUCUGGUGAAUCUGCGAAUACUGCUGUAUAUCUC [C11U G16A C44A A45G U67A], the self-cleavage is 0.07.

As to UAACAGGGGGUCACAGCAGAAGCGUACACGUCGCAGCCCCUGUCAGUUUCUGGUGAAUCUGCGUAUUCUGCUGUAUAUCAC [C11U U26A A47U A64U U80A], the self-cleavage was found to be 0.05. Regarding UAACAGGGGGUCACAGUAGAAGCGUUCACGUCGCAGCCCCUGUCGGAUUCUGGUGAAUCUGCGAAUUCUGCUGUAUAUCUC [C11U C17U A45G], the self-cleavage turned out to be 0.37. Then UAACAGGGGGUCACAGCAGAAGCGCUCACGUCGUAGCCCCUGUCGGUUUCUGGUGAAUCUGCGAAUUCAGCCGUAUAUCUC [C11U U25C C34U A45G A47U U69A U72C], with 0.04. As to UAACAGGGGGCAACAGCUGAAGCGUUCACGUCGCAGCCCCUGUCAGAUUCUGGCGAAACUGCGCAUUCUGCUGUAUAUCUC [C12A A18U U54C U58A A64C], the self-cleavage is 0.17. Then UAACAGGGGGUCACAGCAGAAGCGUUCACGUCGCAGUCCCUGUCAGAUUCUGGUGAAUCCGCGGAUUCUGCUGUAUAUCUC [C11U C37U U60C A64G], with 0.26; and UAACAGGGGGUCACAGCAGAAGCGUUCGUGUCGCAGCCCCUGUCAGAUUCUGGUGAAUCUGCGUAUUCUGCUGCGUAACUC [C11U A28G C29U A64U U74C A75G U78A], with 0.03.

Consider UAACAGGGGGUCACAGCAGAAGCGUUCACGUCUCAGCCCCUGUCAGAUUCUGGUGGAUCUCCGAAUUCUGCCGUAUAUCUC [C11U G33U A56G G61C U72C], for which the self-cleavage was 0.05. Consider UAACAGGGGGUCACAGCAGAAGCGUUCACGUCGCGGCCCCAGUCAGACCCAGGUGAAUCUGCGAGUUCUGCUGUAUAUCUC [C11U A35G U41A U48C U49C U51A A65G], for which the self-cleavage amounted to 0.14.
